Screen size: about 150,000 compounds; about 540 (0.36%) showed an effect of 50% or more. This is one part of the list.
The compounds below were run on Plasmodium falciparum (assay: Primary screen in NF54 nanoGlo assay, in single point, at 2uM, 72h; a lower Z score goes with more inhibition). Conditions: timepoint 72 hour.
Type: functional, Erythrocyte

Structure (SMILES)	% Inhibition [%]	Z score
CCO[C@@H](C)C(=O)NCc1cc(C(C)(C)C)n[nH]1	6	-1.05
CC[C@H]1COCCN1C(=O)Cc1csc(C)n1	-22	2.99
COc1cccc(C(=O)N[C@H]2CCN(C3CCCCC3)C2=O)c1F	-8	1.23
Cc1cccc(-c2nc3[nH]c(CN4CCN(C)CC4)cc(=O)n3n2)c1	4	-0.48
CC(C)c1nnc(CN2CCC(CNC(=O)c3cncnc3)CC2)o1	5	-0.75
CS(=O)(=O)N(Cc1ccc2c(c1)OCCO2)C1CCCC1	-8	1.07
C[C@@H](Cn1ccnc1-c1ccc(F)cc1F)N1CCN(C)CC1	8	-0.99
N#CC1(c2ccc(Cl)cc2)Cc2ccccc2C1	0	-0.04
CCc1onc(C)c1CN1CCn2c(Cc3ccccc3)nnc2C1	6	-0.74
CCCCS(=O)(=O)NCCn1cc(-c2ccoc2)cn1	-7	1.31
C[C@@](CO)(NC(=O)NCC1(c2ccccc2)CC1)C1CC1	-4	0.57
O=C(CCn1cncn1)NCc1ccc(Cl)s1	-10	1
COc1cnc(CN(C)[C@@H](C)c2ccccc2)cc1O	-10	1.35
CCOC[C@H]1CCCCN1c1nc(C)ns1	-1	0.08
CC(C)(C)c1nccc(N2CC(=O)NC3CCCCC32)n1 (stereo unspecified)	-14	1.64
O=C1c2ccc(Cl)cc2C(=O)N1CC1CCCCC1	3	-0.47
CCN(CC)S(=O)(=O)c1ccc(C(=O)NC(C)(C)CC)cc1	-3	0.51
CN1CCN(CCn2c(-c3ccccc3)cn3c4ccccc4nc23)CC1	-4	0.62
Cc1ccccc1NC(=O)N1CCC2(CC1)NC(=O)c1ccccc1N2C	-7	0.83
c1ccc(-c2noc(NC3CC3)n2)cc1	-8	1.68
CCC[C@H](C)C(=O)N(C)C1CCN(c2ccccn2)CC1	-16	2.46
CN(C(=O)c1c(F)c(F)cc(F)c1F)c1ncccc1F	-5	0.84

Structure (SMILES)	% Inhibition [%]	Z score
O=C(Nc1cccc2cccnc12)C1CN(c2nc3ccccc3s2)C1	-11	1.73
CC1(C)C[C@@](C)(c2ccccc2)c2ccccc2N1C(=O)Cc1cccc2ccccc12	19	-2.51
CC(C)(C)CCCC(=O)NCCn1cnnc1C1CC1	-7	1.32
CCC1(CC)OC2c3cc(Cl)cc(Cl)c3OC(C)N2c2ccccc21 (stereo unspecified)	-8	0.97
CCC(CC)CNC(=O)C(=O)N1CCO[C@@H](C)C1	24	-3.67
Cc1cccc(NCCCNc2ccccn2)n1	-5	0.85
COc1cc(C(=O)N[C@@H]2[C@@H]3CCO[C@@H]3[C@H]2NC(C)=O)ccn1	-5	0.94
Cc1ccc(C)c(C(=O)N2C[C@H]3CC[C@@H](C2)N(Cc2ccccn2)C3)c1	0	-0.04
COc1cc2c(c(OC)c1OC)CCN(c1nc(C)cnc1C)CC2	-18	2.09
O=C(NCCCn1cncn1)C1CCCC1	0	0.03
Cc1noc(CCCC(=O)N(C2CC2)[C@H]2CCc3ccccc32)n1	3	-0.5
O=C(c1cccc(Br)c1)N1CCCN(c2nc(C3CCOCC3)nc3c2cnn3-c2ccccc2)CC1	-2	0.32
O=C(O)CCc1cc2n(n1)CCCN(Cc1ccc(C3CCCC3)s1)C2	-12	1.79
CN(C)S(=O)(=O)NCCCC1CCCCC1	-12	1.85
N#Cc1ccc(NCCNC(=O)c2cnccn2)nc1	-5	0.63
Cc1nn(-c2ccccc2)c(C)c1C(=O)Nc1ccc(OCc2ccccc2)cc1	-3	0.5
CN(Cc1ccon1)C(=O)c1ccc(N2CCCC2)nc1	-2	0.2
CS(=O)(=O)CC1(COc2ccc([C@@H]3CCC(=O)N3)cc2)CC1	-5	0.71
COc1cc([C@@H]2C3=C(O)N(C(C)=O)CC3=Nc3cccc4c3c2cn4CCC(C)C)cc(OC)c1OC	0	-0.02
O=C(Cc1c(F)cccc1Cl)NC(Cc1ccncc1)[C@H]1C[C@@H](O)C1 (stereo partly specified)	-1	0.14
COCCCNC(=O)[C@@H]1CC2(CCN(C(=O)c3cc(C)on3)CC2)C(=O)N1C	-1	0.12
